Experimental data from PMC6919601, “Identification of Plasmodium dipeptidyl aminopeptidase allosteric inhibitors by high throughput screening” (PLoS ONE, 2019).
Among all 110,000 compounds or so, about 230 (0.21%) showed an effect of 50% or more. This is one part of the list.

These molecules were tested against DPAP1 (Plasmodium falciparum, UniProt Q8IIJ9) (assay: primary screen, percent inhibition; read by cleavage of a fluorogenic dipeptide substrate; higher = more effect of the substance).
Parameters: species or system P. falciparum D10 trophozoite lysates; single well
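Also: 30 min substrate incubation versus DMSO and 10 µM JCP410 controls.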

Sequence of DPAP1 (Q8IIJ9 whole entry, looked up): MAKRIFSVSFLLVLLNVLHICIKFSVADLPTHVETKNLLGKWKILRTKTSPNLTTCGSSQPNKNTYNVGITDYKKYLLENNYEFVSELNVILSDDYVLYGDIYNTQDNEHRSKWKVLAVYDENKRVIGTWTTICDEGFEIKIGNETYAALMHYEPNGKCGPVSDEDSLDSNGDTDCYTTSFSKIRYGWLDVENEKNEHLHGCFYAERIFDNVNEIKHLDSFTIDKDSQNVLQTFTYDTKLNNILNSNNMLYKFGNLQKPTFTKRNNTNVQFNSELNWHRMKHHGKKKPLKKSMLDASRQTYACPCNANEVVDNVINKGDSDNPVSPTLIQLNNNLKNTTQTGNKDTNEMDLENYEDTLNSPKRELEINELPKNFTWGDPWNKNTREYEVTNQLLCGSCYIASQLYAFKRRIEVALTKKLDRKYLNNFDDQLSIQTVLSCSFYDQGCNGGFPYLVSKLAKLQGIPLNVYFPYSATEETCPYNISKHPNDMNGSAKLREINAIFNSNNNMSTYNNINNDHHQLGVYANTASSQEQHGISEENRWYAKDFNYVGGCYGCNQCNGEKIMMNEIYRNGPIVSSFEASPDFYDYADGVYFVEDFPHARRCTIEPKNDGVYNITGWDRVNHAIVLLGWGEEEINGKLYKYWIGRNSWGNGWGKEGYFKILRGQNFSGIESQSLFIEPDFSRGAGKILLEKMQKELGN

SMILES	% Inhibition @ 10 uM [%]
Cc1ccc(-c2c(NC3CCCc4ccccc43)c(=O)c2=O)cc1 (stereo not drawn)	-2.28
Cc1ccccc1OCCCn1ccnc1	-2.28
CCOc1ccc(S(=O)(=O)NCc2ccccc2OC)cc1	0.727
Cc1cccc(CN2CCN(CC(=O)NCCCN3CCCC3=O)C2=O)c1	-7.85
CCCCC(=O)Nc1ncc2c(n1)CC(C)(C)CC2=O	-2.54
CCCOc1ccc(C2C(C(=O)OC)=C(C)N(C)C(C)=C2C(=O)OC)cc1	6.12
CC(C)OCCCn1c(=O)c2ccccc2n2c(CCC(=O)O)nnc12	-4.58
O=S(=O)(c1ccc(Cc2ccc(S(=O)(=O)N3CCOCC3)cc2)cc1)N1CCOCC1	3.25
CCOc1cc2c(cc1OCC)C1C(C(=O)NCCOC)c3ccccc3C(=O)N1CC2 (stereo not drawn)	-5.29
Cc1c(C(=O)NCc2ccccc2Cl)oc2ccc(S(=O)(=O)N3CCC(C)CC3)cc12	3.33
Cc1cccc(C)c1NC(=O)c1ccc(Cl)cc1	-3.82
CCOC(=O)C(C(=O)OCC)=C(/C=C/N(C)C)N(C)C	-3.75
Cc1ccc(-c2c(C#N)c(N)nc3c2CCCCCCCCCC3)cc1	-0.711
COCc1nnc(NC(=O)c2ccc(S(=O)(=O)N(C)Cc3ccccc3)cc2)o1	0.457
COc1cc(CNS(=O)(=O)c2ccc3[nH]c4c(c3c2)CCCC4)cc(OC)c1OC	-2.5
Cc1ccc(Cn2cc(CCC(=O)N3CCC(C(N)=O)CC3)c3ccccc32)cc1	-0.822
CN(CCOC12CC3CC(CC(C3)C1)C2)S(=O)(=O)c1ccc(C(C)(C)C)cc1	3.68
CC(=O)c1cccc(NC(=O)c2ccc(N(Cc3ccccc3C)S(C)(=O)=O)cc2)c1	-2.92
Nc1ccccc1C(=O)N1CCN(c2ccc(Cl)cc2)CC1	-7.17
CCOc1cc(/C=C(/C#N)c2nc(-c3cc4ccccc4oc3=O)cs2)ccc1O	4.35
CC(C)C[C@H](NC(=O)c1cccc(-c2ncccn2)c1)C(=O)NCC#N	-5.2
Cc1nn(C(=O)c2ccc(COc3ccccc3Cl)o2)c(C)c1Br	2.1
CCOC(=O)/C(C#N)=C\c1ccc(N(CC)CC)cc1	4.67
COc1ccc(NC(=O)CNS(=O)(=O)c2ccc(Br)cc2)cc1OC	0.361
CSc1cccc(NC(=O)CN(Cc2ccc(F)cc2)S(=O)(=O)c2ccccc2)c1	-0.68
Cc1ccc(-n2nc(C)c3c2OC(N)=C(C#N)C3c2cccs2)cc1 (stereo not drawn)	7.93
COC(=O)c1ccc(/C=N/N=C(\N)c2nonc2N)cc1	-2.98
